The text below walks through data of article PMC12040169 (PLOS Biology, 2025).

The list shows a part of the results.

The assay deals with T1, C. trachomatis L2/434/Bu expressing GFP (CTL2-GFP).
T1 construct: L2/434/Bu GFP intracellular growth in HeLa cells
More on the design: species or system HeLa; C. trachomatis total inclusion area by high-content imaging, normalised to DMSO. The settings on record: total inclusion area; 28.5 h, 10 µM; inhibitor. An outline of the steps:
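Host cell viability was gauged from Hoechst-stained nuclei counts, while chlamydial growth was taken from total inclusion area and inclusion number per well. Cells were fixed and imaged by high-content microscopy once bulk GFP and resorufin fluorescence had been measured.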
`Cc1cnc2[nH]c(C3CCCN(C(=O)c4cnn(C)c4C)C3)cc2c1` (stereo not drawn) [CBK285171]: the “% of control remaining” value was determined as 96.0508.
For `CC(=O)c1c(C)oc2ccc(N(C(=O)c3cccc([N+](=O)[O-])c3)S(=O)(=O)c3cccc4cccnc34)cc12` [CBK267044], the “% of control remaining” value is recorded as 97.1328.
As for `CC1(c2ccccc2)NC(NC2CCCCC2)=NC1=O` (stereo not drawn) [CBK008081], the figure is 63.829; as for `Cc1cc(N(C)Cc2ccccc2Br)nc(N)n1` [CBK297753], 20.6044.
Consider `CN1CCN(C(=S)SCC(=O)O)CC1` [CBK261549C], for which the “% of control remaining” value came out at 90.6712.
With `Cc1nnc(SCc2nc(N)nc(Nc3ccccc3)n2)s1` [CBK266436], the “% of control remaining” value is given as 111.049.
Turning to `COc1cncc(-c2cnc(N)c(N3CCOCC3)n2)c1` [CBK063360], the “% of control remaining” value is given as 111.11.
Take `Cc1nn(-c2ncccn2)c2c1C(C(=O)c1ccccc1)CC(=O)N2` (stereo not drawn) [CBK287890]: the “% of control remaining” value came to 130.711.
Regarding `O=C(NCCc1c[nH]c2ccc(Cl)cc12)c1cccnc1` [CBK159778], the “% of control remaining” value came out at 89.4423.
For the compound `CC(=O)Nc1c(O)nc(SCC(=O)Nc2ccc(Cl)cc2)[nH]c1=O` [CBK266214], the “% of control remaining” value is recorded as 95.5502.
With `N#CCCN(Cc1ccccc1)C(=O)c1ccccc1[N+](=O)[O-]` [CBK264434], the “% of control remaining” value turned out to be 97.1527.
For `NCCNc1ccc([N+](=O)[O-])c(Sc2nc3ccccc3[nH]2)c1` [CBK265882], the “% of control remaining” value was 92.0918.
For `CN(CCCc1nc(-c2ccc(Cl)cc2)no1)S(=O)(=O)c1ccc([N+](=O)[O-])cc1` [CBK267365], the “% of control remaining” value worked out at 122.015.
As for `Nc1c(C(=S)c2cccs2)oc2c1C(c1ccccc1)CC(=O)N2` (stereo not drawn) [CBK020690], the “% of control remaining” value is given as 1.725.
Regarding `COc1ccccc1CC(CC(=O)O)C(=O)O` (stereo not drawn) [CBK261508], the “% of control remaining” value amounted to 90.5765.
Regarding `COc1cc2c(cc1OC)CN(C(=O)c1ccccn1)CC2` [CBK115864], the “% of control remaining” value came out at 119.562.
As for `COC(=O)CCn1c(-c2ccccn2)cc2cccnc21` [CBK282634], the figure is 99.9993; as for `CC(C(=O)c1ccc(-c2ccccc2F)cc1)N1CCN(c2ccc(C#N)cc2)CC1` (stereo not drawn) [CBK074706], 54.8017.
Take `Cc1nn(C)cc1CN1CCCC(c2cc3ccccc3cn2)C1` (stereo not drawn) [CBK285041]: the “% of control remaining” value turned out to be 77.7594.
`CCOC(=O)CN1CCC(Oc2cncc(OCc3ccc(Cl)c(Cl)c3)n2)C1` (stereo not drawn) [CBK084432]: the “% of control remaining” value is 84.1916.
Take `COc1ccc(C2(C(=O)NCc3ccc(Cl)c(Cl)c3)CC2)cc1` [CBK149827]: the “% of control remaining” value stood at 82.0948.
Take `CC1(C)C2CCC1(CS(=O)(=O)N(Cc1ccccc1)Cc1ccccc1)C(=O)C2` (stereo not drawn) [CBK266082]: the “% of control remaining” value turned out to be 70.6012.
With `OCCN1CC2(CCN(Cc3cccc(Oc4ccccc4)c3)CC2)c2ccccc21` [CBK131528], the “% of control remaining” value was found to be 91.4019.
Take `COc1cccc(NC(=O)CSc2nnc(CC(C)C)n2C)c1` [CBK269626]: the “% of control remaining” value is 96.6424.
In the case of `CC(C)(C)C(=O)Nc1ccc(C(=O)Nc2cccc(C(=O)O)c2)cc1` [CBK261329], the “% of control remaining” value is 96.5825.
In the case of `Cc1ccc(SCCNCCN2CCOCC2)cc1` [CBK268581G], the “% of control remaining” value came to 111.653.
On to `COCCNC(=O)C1(O)c2ccccc2NC(=O)N1c1cccc(OC)c1` (stereo not drawn) [CBK288589], for which the “% of control remaining” value worked out at 109.676.
Take `COc1ccc(C(=O)Nc2ccc(N3CCNCC3)nc2)cc1` [CBK029434T]: the “% of control remaining” value stood at 87.768.
For the compound `COc1ccc(C(=O)OC(C)(C)C)c(-c2cncc(NCc3ccco3)n2)c1` [CBK037751], the “% of control remaining” value was determined as 115.6.
As for `CCc1noc(C)c1C(=O)NCc1cccnc1N(C)C1CCCCC1` [CBK306804], the “% of control remaining” value worked out at 89.7706.
Take `COC(=O)c1cn(C(=O)c2snnc2C)nc1C(C)(C)C` [CBK021420]: the “% of control remaining” value is reported as 88.5192.
As for `CN1CCN(c2nc(-c3ccoc3)cnc2N)CC1` [CBK063362], the “% of control remaining” value turned out to be 114.203.
The same measure for `CC(C)N(CCC(c1ccccc1)c1cc(Br)ccc1OCc1ccccc1)C(C)C` (stereo not drawn) [CBK017656]: 19.3551.
On to `Cc1ccc(NC(=O)c2ccc(-n3nncc3C)cc2)cc1` [CBK287790], for which the “% of control remaining” value is reported as 91.9185.
For the compound `CCOC(=O)c1cc(C)sc1NC(=O)CCC(=O)O` [CBK265412], the “% of control remaining” value worked out at 84.2374.
Turning to `C[C@H](NC(=O)OC1CC[C@@]2(c3ccccc3)CCN(C)[C@H]2C1)c1cccc2ccccc12` (stereo partly drawn) [CBK003664], the “% of control remaining” value is reported as 61.8113.
With `CCOC(=O)c1[nH]c2c([N+](=O)[O-])cccc2c1O` [CBK115315], the “% of control remaining” value was determined as 72.1828.
Take `Cc1cc2nc(NC(=N)N)nc(C)c2cc1C` [CBK262269]: the “% of control remaining” value is listed as 62.0723.
Take `Cn1ncc2c1CCCN(C(=O)CCCOc1ccccc1F)C2` [CBK285278]: the “% of control remaining” value was determined as 91.461.
For `O=C(O)CSCC(=O)N(Cc1ccccc1)c1nc(-c2ccccc2)c(-c2ccccc2)s1` [CBK296138], the “% of control remaining” value was found to be 127.041.
For the compound `CNCc1cccc(OC)c1OCc1ccccc1F` [CBK269949C], the “% of control remaining” value is listed as 100.865.
For `COCCOCC(C)NC(=O)COc1nn(C)c2nc(C)cc(C)c12` (stereo not drawn) [CBK305177], the “% of control remaining” value was found to be 77.6295.
The same measure for `CCC(C)(C)c1ccc(S(=O)(=O)N2CCN(Cc3ccc(O)c(F)c3)CC2)cc1` [CBK062968]: 99.3418; for `O=C(CCCn1cccn1)N1CCCN(Cc2ccc(F)cc2)CC1` [CBK304641]: 35.8694; for `CCc1onc(C)c1C(=O)NCC1CCCCN1CC(C)C` (stereo not drawn) [CBK305124]: 51.0099.
`COc1ncc(-c2cnc3[nH]c(=O)n(C4CC4)c3n2)cn1` [CBK064908]: the “% of control remaining” value came to 155.714.
In the case of `COc1cccc(Cc2c(C)nc3c(C(=O)NCCCN4CCCC4=O)cnn3c2C)c1` [CBK162055], the “% of control remaining” value is 64.8271.
As for `Cc1cc(Cl)ccc1CNC(=O)c1ccccc1Nc1cccc(C(F)(F)F)c1` [CBK149544], the figure is 83.747; as for `CCN1CCN(C2CCN(Cc3ccccc3[N+](=O)[O-])CC2)CC1` [CBK264631G], 122.129.
As for `O=C(Nc1cccc(Cn2cccn2)c1)c1csc2ccccc12` [CBK268123], the figure is 107.07.
As for `CC(C)C(=O)N1CC2(CCN(Cc3nc4ccccc4s3)CC2)c2ccccc21` [CBK136980], the figure is 85.2977; as for `Cc1cc(Cl)ccc1CNC(=O)c1ccc(-c2ccoc2)nc1` [CBK156254], 101.281.
In the case of `COc1cncc(-c2cncc(N[C@H](CO)C(C)C)n2)c1` [CBK065329], the “% of control remaining” value was determined as 113.449.
Take `Cc1nc(CN2CCN(CCc3ccccc3)CC2)cs1` [CBK126457]: the “% of control remaining” value was 83.6425.
For `CC(C)C(CNCc1ccc(F)c(Cl)c1)c1ccnn1C` (stereo not drawn) [CBK305130], the “% of control remaining” value turned out to be 70.6563.
With `Cc1cc(NC(=O)c2cccc(Br)c2)nc2c1c(=O)oc1ccccc12` [CBK291238], the “% of control remaining” value is listed as 105.119.
As for `Cn1c2c(c(=O)n(C)c1=O)CN(CCN1CCNCC1)CN2` [CBK265218], the “% of control remaining” value came to 115.06.
`Cc1ccc(OC(C)C(=O)NCc2ccccc2)cc1` (stereo not drawn) [CBK269016]: the “% of control remaining” value was found to be 97.1359.
Consider `Sc1nnc(-c2ccncc2)n1/N=C/c1c[nH]c2ccccc12` [CBK265272], for which the “% of control remaining” value worked out at 101.584.
As for `COc1ccc(S(=O)(=O)N(C)c2ccc(C(=O)NCc3ccccn3)cc2)cc1` [CBK269099], the “% of control remaining” value was 121.58.
For `COCC(=O)N1CCN2C(=O)c3ccccc3NC(=O)[C@@H]2C1` [CBK289582], the “% of control remaining” value turned out to be 110.971.
As to `COc1cc(CN2CCN(Cc3cccc4ccccc34)CC2)c([N+](=O)[O-])cc1OC` [CBK074450G], the “% of control remaining” value is reported as 74.0491.
`CCc1ccc(C(=O)c2ccccc2C(=O)O)cc1` [CBK010776]: the “% of control remaining” value was found to be 103.639.
As for `CN(C)C(=O)n1cc(Cl)c(-c2ccccc2)n1` [CBK004985], the figure is 95.8621.
Turning to `CCc1cccc(CC)c1NC(=O)CC1SC(NCc2ccc(C)cc2)=NC1=O` (stereo not drawn) [CBK059431], the “% of control remaining” value stood at 96.2944.
`CC(=O)Nc1cccc(-c2cn3ccnc3c(N[C@@H](CO)C(C)C)n2)c1` [CBK036605]: the “% of control remaining” value was determined as 112.273.
As for `O=C1CC(c2nc3ccccc3n2CCc2ccccc2)CN1c1ccccc1` (stereo not drawn) [CBK266311], the figure is 102.508; as for `CC(=O)Nc1ccc(CN2CCC[C@H]2c2nc(-c3ccnc(NS(C)(=O)=O)c3)no2)cc1` [CBK288888], 91.8563.
Turning to `COc1cccc(CN2CCN(CC(=O)N3CCCC3)[C@@H](C)C2)c1` [CBK286171], the “% of control remaining” value came out at 84.3511.
For `O=C(NC(=S)Nc1ccc2oc(-c3ccncc3)nc2c1)c1ccccc1[N+](=O)[O-]` [CBK264106], the “% of control remaining” value amounted to 75.398.
For `CN1CCN(NC(=O)c2cc(-c3cccnc3)nc3ccc(Cl)cc23)CC1` [CBK267729], the “% of control remaining” value is recorded as 100.632.
The same measure for `NC(=O)c1ccc(Nc2cc(N)ncn2)cc1` [CBK017969]: 84.9409; for `Cc1cc(C)n(CC(=O)N2CCCC2c2ccc(C)c(C)c2)c(=O)n1` (stereo not drawn) [CBK282991]: 108.652.
As to `CCN(CC)C(=O)CN1CCC(Oc2cncc(OCCN3CCOCC3)n2)C1` (stereo not drawn) [CBK084490], the “% of control remaining” value worked out at 90.5322.
As for `CCN(CC)CCN1CCN(c2cncc(-c3ccc(F)cc3F)n2)CC1` [CBK065668], the “% of control remaining” value came to 120.976.
Turning to `CCCc1ccc(S(=O)(=O)n2ccn(-c3ccc4c(c3)OCO4)c2=O)cc1` [CBK106634], the “% of control remaining” value is listed as 91.1526.
As for `COC(=O)c1ccc(N2CCN(Cc3nc(C)c(C)o3)C(C)C2)cc1` (stereo not drawn) [CBK304903], the figure is 87.4682.
Regarding `CC(=O)C12c3ccccc3C(c3ccccc31)C1C(=O)N(c3ccc(Cl)c(C(=O)O)c3)C(=O)C12` (stereo not drawn) [CBK263021], the “% of control remaining” value amounted to 98.9987.
As for `COc1cc(/C=C2\C(=O)N(c3ccccc3Cl)N=C2c2ccccc2)ccc1O` [CBK265698], the figure is 104.728; as for `O=C1CN(C(=O)Nc2ccc3[nH]ccc3c2)CCN1` [CBK155858], 103.977.
On to `C=CCn1ncc(CN(C)Cc2nc3ccccc3[nH]2)c1C` [CBK283169], for which the “% of control remaining” value is given as 84.5765.
